Reference: the supplement of paper PMC4967469
By IC50 is meant the dose at which the fit gives 50% viability; a limit (>, <) means that the fit lies beyond the doses tested. AUC is the area under the same curve over the 256-fold range up to the top dose, as a fraction; values near 1 show little effect. A top dose marked as inferred comes from the curve model; the source does not state it. For some of these results: Drugs with an entry number were screened twice under separate entries, and the two screens often disagree.

What was measured:
Test in all cases: Viability of human cancer cell lines after 72 h of drug (GDSC screen)
[1] = compound: Cn1ncnc1[C@H]1c2n[nH]c(=O)c3cc(F)cc(c23)N[C@@H]1c1ccc(F)cc1 [BMN-673]; conditions: top dose 10 µM; top dose inferred
Protocol: (§1)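 Human cancer cell lines in 384-well plates, medium with 10% serum, drug for 72 h over a 256-fold dose range (nine 2-fold or five 4-fold steps up to the top dose). Adherent lines were fixed and stained with the nucleic acid dye Syto60, suspension lines read with resazurin; signal relative to control wells, capped at 0 and 100%. One two-parameter sigmoid per drug and line, fitted in a mixed model over all curves with the slope shared within a line.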

[2] = compound: Cc1cc([C@@H](C)Nc2ccccc2C(=O)O)c2nc(N3CCOCC3)cc(=O)n2c1 [AZD6482]
Protocol: as §1

[3] = compound: NS(=O)(=O)OC[C@@H]1C[C@@H](n2ccc3c(N[C@H]4CCc5ccccc54)ncnc32)C[C@@H]1O [MLN4924]; conditions: top dose 1 µM; top dose inferred
Protocol: as §1

[4] = top dose 5 µM, screen: GDSC drug entry 1066, top dose inferred
[5] = top dose 5.12 µM, screen: GDSC drug entry 156

Cell Line | AUC [1] | IC50 [1] [µM] | AUC [2, 4] | IC50 [2, 4] [µM] | AUC [2, 5] | IC50 [2, 5] [µM] | AUC [3] | IC50 [3] [µM]
HAL-01 (lymphoblastic leukaemia, suspension) | 0.383 | 0.311 | 0.547 | 0.414 | 0.723 | 1.26 | 0.988 | > 1
HC-1 (hairy cell leukaemia, suspension) | 0.677 | 1.91 | 0.964 | > 5 | 0.826 | 2.93 | 0.753 | 0.322
HCC1143 (breast, adherent) | 0.905 | > 10 | 0.94 | > 5 | 0.915 | > 5.12 | 0.9 | > 1
HCC1187 (breast, suspension) | 0.973 | > 10 | 0.983 | > 5 | 0.983 | > 5.12 | 0.7 | 0.221
HCC1500 (breast, adherent) | 0.987 | > 10 | 0.955 | > 5 | 0.955 | > 5.12 | 0.987 | > 1
HCC-44 (lung adenocarcinoma, adherent) | 0.504 | 0.641 | 0.666 | 0.897 | 0.935 | > 5.12 | 0.542 | 0.081
HCC-827 (lung adenocarcinoma, adherent) | 0.952 | > 10 |  |  | 0.923 | > 5.12 | 0.973 | > 1
HD-MY-Z (Hodgkin lymphoma, adherent) | 0.611 | 1.27 | 0.956 | > 5 | 0.986 | > 5.12 | 0.649 | 0.162
HDLM-2 (Hodgkin lymphoma, suspension) | 0.845 | 7.05 | 0.985 | > 5 | 0.965 | > 5.12 | 0.932 | > 1
HDQ-P1 (breast, adherent) | 0.976 | > 10 | 0.892 | > 5 | 0.876 | > 5.12 | 0.947 | > 1
HEL (acute myeloid leukaemia, semi-adherent) | 0.549 | 0.828 | 0.988 | > 5 | 0.963 | > 5.12 | 0.68 | 0.18
HH (T-cell leukaemia, suspension) | 0.876 | > 10 | 0.763 | 2.4 | 0.529 | 0.394 | 0.974 | > 1
HLE (liver, adherent) | 0.967 | > 10 | 0.978 | > 5 | 0.919 | > 5.12 | 0.724 | 0.258
HMV-II (melanoma, adherent) | 0.922 | > 10 | 0.955 | > 5 | 0.94 | > 5.12 | 0.839 | 0.913
HN (head and neck, adherent) | 0.687 | 2 | 0.907 | > 5 | 0.989 | > 5.12 | 0.796 | 0.435
HO-1-N-1 (head and neck, adherent) | 0.688 | 2 | 0.941 | > 5 | 0.963 | > 5.12 | 0.711 | 0.233

Cell Line | AUC [1] | IC50 [1] [µM] | AUC [2, 4] | IC50 [2, 4] [µM] | AUC [2, 5] | IC50 [2, 5] [µM] | AUC [3] | IC50 [3] [µM]
HO-1-u-1 (head and neck, adherent) | 0.875 | 9.09 | 0.959 | > 5 | 0.97 | > 5.12 | 0.802 | 0.468
HOP-62 (lung adenocarcinoma, adherent) | 0.544 | 0.825 | 0.953 | > 5 | 0.892 | > 5.12 | 0.646 | 0.158
HOP-92 (large cell lung carcinoma, adherent) | 0.844 | 8.92 | 0.809 | 3.12 | 0.852 | 4.95 | 0.937 | > 1
HOS (osteosarcoma, adherent) | 0.626 | 1.3 | 0.888 | 4.04 | 0.94 | > 5.12 | 0.69 | 0.192
HPAF-II (pancreas, adherent) | 0.905 | > 10 | 0.894 | > 5 | 0.946 | > 5.12 | 0.929 | > 1
HSC-3 (head and neck, adherent) | 0.738 | 2.65 | 0.947 | > 5 | 0.99 | > 5.12 | 0.792 | 0.382
HT (B-cell lymphoma, suspension) | 0.989 | > 10 | 0.828 | 2.74 | 0.823 | 2.7 | 0.967 | > 1
HT-3 (cervix, adherent) | 0.428 | 0.396 | 0.951 | > 5 | 0.983 | > 5.12 | 0.666 | 0.183
HT-144 (melanoma, adherent) | 0.872 | > 10 | 0.941 | > 5 | 0.87 | > 5.12 | 0.937 | > 1
HT-1376 (bladder, adherent) | 0.975 | > 10 |  |  | 0.959 | > 5.12 | 0.983 | > 1
HTC-C3 (thyroid, adherent) | 0.909 | > 10 | 0.777 | 2.25 | 0.853 | 4.79 | 0.94 | > 1
Hep 3B2_1-7 (liver, adherent) | 0.949 | > 10 | 0.902 | > 5 | 0.958 | > 5.12 | 0.887 | > 1
Hs633T (fibrosarcoma, adherent) | 0.666 | 1.64 | 0.865 | 3.14 | 0.918 | > 5.12 | 0.746 | 0.269
Hs746T (stomach, adherent) | 0.863 | > 10 | 0.932 | > 5 | 0.937 | > 5.12 | 0.957 | > 1
HuCCT1 (biliary tract, adherent) | 0.849 | 8.84 | 0.533 | 0.389 | 0.797 | 2.73 | 0.733 | 0.316
